In PubChem BioAssay (NCI) one finds TGI and GI50 data, which are given here for five molecules.

Some test systems named below: PC-3 prostate; HCT-116 colon; OVCAR-8 ovarian; SK-MEL-2 melanoma; MCF7 breast; CAKI-1 renal; NCI-H226 lung; OVCAR-5 ovarian; SF-539 CNS; DU-145 prostate; SK-OV-3 ovarian; MDA-MB-231 breast; SW-620 colon; SN12C renal; BT-549 breast; MDA-MB-435; UO-31 renal; A498 renal; KM12 colon; U251 CNS; OVCAR-3 ovarian; HOP-62 NSCLC; 786-0 renal; UACC-62 melanoma; IGROV1 ovarian; A549 NSCLC; T-47D breast; HCC-2998 colon; HS 578T breast; NCI/ADR-RES ovarian; NCI-H23 lung; HCT-15 colon; SF-295 CNS; TK-10 renal; SNB-75 CNS; SNB-19 CNS; MOLT-4 leukemia; SF-268 CNS; CCRF-CEM leukemia; OVCAR-4 ovarian; SR leukemia; MDA-N; HOP-92 NSCLC; NCI-H522 lung; K-562 leukemia; NCI-H460 lung; HT29 colon; LOX IMVI melanoma; MALME-3M melanoma; ACHN renal; M14 melanoma; SK-MEL-5 melanoma; SK-MEL-28 melanoma; EKVX NSCLC.

What all share (experiment): inhibition of tumour cell growth, NCI panel, 48 h

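These data come from cells grown in 96-well plates and exposed to compound for 48 hours at five concentrations. The concentration for 50% growth inhibition is given as GI50.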 A number of entries come with more than one value. The list is limited to them. There may be further records. For some assays here: The tests behind the records often covered other concentration ranges, not given here; some values may only mark the edge of a range. For some assays here: Values that stand side by side repeat one measurement in other runs, samples, wells, individuals or studies. Marks in square brackets tell the records apart. A, B and so on number the origins entry by entry.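 TGI denotes the concentration required for complete inhibition of growth.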 Numbered stars: 1 amine (or outer) side, 2 acyl side, 3 side chain; on linkers, the order of the positions; unused ones are H or OH. Bridge positions count the residues as written; N and C are the ends. Square brackets hold non-standard residues; d marks the D form. Peptide text beside a SMILES is read from it. I, II: the chains in the order shown. Actinocin(9to1) = Cc1c2oc3c(C)ccc(C(=O)[*:1])c3nc-2c(C(=O)[*:2])c(N)c1=O; NMeV = CN[CH](C(=O)O)C(C)C; Sar = CNCC(=O)O

As for `CC(C)(C)c1ccc(C(O)CCCN2CCC(C(O)(c3ccccc3)c3ccccc3)CC2)cc1` (configuration not stated), the TGI is 45.6 µM [sample A, 1 test] and 3.32 µM [sample B, 1 test] with PC-3 prostate; 48.7 µM [sample A, 1 test] and 2.81 µM [sample B, 1 test] with HCT-116 colon; 39.9 µM [sample A, 1 test] and 3.19 µM [sample B, 1 test] in the test on OVCAR-8 ovarian; 50.4 µM [sample A, 1 test] and 3.62 µM [sample B, 1 test] in the test with SK-MEL-2 melanoma; 36.8 µM [sample A, 1 test] and 3.03 µM [sample B, 1 test] in the test with MCF7 breast; 61.6 µM [sample A, 1 test] and 2.72 µM [sample B, 1 test] in the test with CAKI-1 renal. In addition, the TGI in the test on NCI-H226 lung is 57.8 µM [sample A, 1 test] and 2.89 µM [sample B, 1 test]; in the test with OVCAR-5 ovarian, 52.8 µM [sample A, 1 test] and 3.11 µM [sample B, 1 test]; in the test on SF-539 CNS, 55.1 µM [sample A, 1 test] and 3.21 µM [sample B, 1 test]; in the test on DU-145 prostate it was 50.3 µM [sample A, 1 test] and 3.07 µM [sample B, 1 test]; in the test with SK-OV-3 ovarian, 53.1 µM [sample A, 1 test] and 2.85 µM [sample B, 1 test]; in the test with MDA-MB-231 breast, 47.9 µM [sample A, 1 test] and 3.01 µM [sample B, 1 test]. Further, the TGI is 42.8 µM [sample A, 1 test] and 2.93 µM [sample B, 1 test] in the test with SW-620 colon; 51.9 µM [sample A, 1 test] and 3.07 µM [sample B, 1 test] in the test on SN12C renal; 47.8 µM [sample A, 1 test] and 3.05 µM [sample B, 1 test] in the test on BT-549 breast; 36.3 µM [sample A, 1 test] and 2.98 µM [sample B, 1 test] with MDA-MB-435; 46.7 µM [sample A, 1 test] and 2.36 µM [sample B, 1 test] in the test on UO-31 renal; 54 µM [sample A, 1 test] and 2.42 µM [sample B, 1 test] with A498 renal. Also, the TGI with KM12 colon is 47.2 µM [sample A, 1 test] and 3.15 µM [sample B, 1 test]; in the test on U251 CNS, 39.2 µM [sample A, 1 test] and 2.83 µM [sample B, 1 test]; in the test with OVCAR-3 ovarian, 49.7 µM [sample A, 1 test] and 2.98 µM [sample B, 1 test]; in the test on HOP-62 NSCLC, 48.3 µM [sample A, 1 test] and 2.7 µM [sample B, 1 test]; with 786-0 renal it was 50.2 µM [sample A, 1 test] and 3.05 µM [sample B, 1 test]; with UACC-62 melanoma, 54.6 µM [sample A, 1 test] and 2.92 µM [sample B, 1 test]. The TGI in the test on IGROV1 ovarian is 46.9 µM [sample A, 1 test] and 2.87 µM [sample B, 1 test]; in the test with A549 NSCLC it was 50.7 µM [sample A, 1 test] and 3.02 µM [sample B, 1 test]; in the test with T-47D breast, 49.1 µM [sample A, 1 test] and 3.07 µM [sample B, 1 test]; in the test on HCC-2998 colon it was 30.9 µM [sample A, 1 test] and 2.79 µM [sample B, 1 test]; in the test with HS 578T breast, 51.4 µM [sample A, 1 test] and 3.76 µM [sample B, 1 test]; with NCI/ADR-RES ovarian, 48.7 µM [sample A, 1 test] and 3.08 µM [sample B, 1 test]. Moreover, the TGI is 53.4 µM [sample A, 1 test] and 3 µM [sample B, 1 test] in the test on NCI-H23 lung; 48 µM [sample A, 1 test] and 3.08 µM [sample B, 1 test] in the test with HCT-15 colon; 46.7 µM [sample A, 1 test] and 3.06 µM [sample B, 1 test] in the test with SF-295 CNS; 52.7 µM [sample A, 1 test] and 3.11 µM [sample B, 1 test] in the test on TK-10 renal; 40.9 µM [sample A, 1 test] and 2.7 µM [sample B, 1 test] in the test on SNB-75 CNS; 49.9 µM [sample A, 1 test] and 2.93 µM [sample B, 1 test] with SNB-19 CNS.
For the molecule `O=C1NC(N/N=C\C(O)C(O)C(O)C(O)CO)=N/C1=C/c1ccccc1` (configuration not stated), the TGI in the test on MOLT-4 leukemia was 48.8 µM [sample A, 1 test] and 6.93 µM [sample B, 1 test] and 70.6 µM [sample C, 1 test]. Moreover, in the test on T-47D breast, the GI50 was > 100 µM [sample A, 1 test] and 8.92 µM [sample B, 1 test] and > 100 µM [sample C, mean of 2 tests].
Regarding `Cc1c(CNc2ccc(C(=O)NC(CCCNC(=O)c3ccccc3C(=O)O)C(=O)O)cc2)cnc2nc(N)nc(N)c12` (configuration not stated), the TGI is 169 nM and > 100 µM in the test on HCT-116 colon; 1.01 µM and > 100 µM in the test with OVCAR-8 ovarian; 2.58 nM, 3.38 µM, > 100 µM with SF-268 CNS; 3.38 µM and > 100 µM in the test with SK-MEL-2 melanoma; 8.58 µM and > 100 µM in the test on MCF7 breast; 7.8 µM and > 100 µM in the test on CCRF-CEM leukemia. Besides, the TGI with SF-539 CNS was 1.85 µM and > 100 µM; in the test with MDA-MB-435, 2.72 µM and > 100 µM; in the test with OVCAR-4 ovarian it was 8.04 µM and > 100 µM; in the test with SR leukemia, 1.06 µM and > 100 µM; with KM12 colon, 7.56 µM and > 100 µM; in the test on MDA-N, 2.01 µM and > 100 µM. The TGI with HOP-92 NSCLC was 5.21 µM and > 100 µM; in the test on NCI-H522 lung, 344 nM, 448 nM, > 100 µM; in the test with MOLT-4 leukemia, 3.06 µM and > 100 µM; in the test with HOP-62 NSCLC, 8.7 µM and > 100 µM; in the test on K-562 leukemia, 271 nM and > 100 µM; with UACC-62 melanoma, 380 nM, 1.73 µM, > 100 µM. The TGI with IGROV1 ovarian is 3.48 µM and > 100 µM; in the test on NCI-H460 lung, 558 nM and > 100 µM; in the test on HT29 colon, 2.9 µM and > 100 µM; in the test on T-47D breast it was 5.33 µM and > 100 µM; with HCC-2998 colon it was 2.2 µM and 72.8 nM; in the test with HS 578T breast, 769 nM, 4.11 µM, > 100 µM. The TGI in the test with LOX IMVI melanoma was 7.03 µM and > 100 µM; with NCI-H23 lung, 1.05 µM and > 100 µM; in the test with SF-295 CNS, 3.55 µM and > 100 µM; with MALME-3M melanoma, 2.73 µM and > 100 µM; with ACHN renal, 3.83 µM and > 100 µM; with M14 melanoma, 3.4 µM and > 100 µM. Also, the TGI in the test with TK-10 renal was 6.83 µM and > 100 µM; in the test with SNB-75 CNS, 47.1 nM, 1.55 µM, > 100 µM; in the test on SK-MEL-5 melanoma, 2.66 µM and > 100 µM; in the test on SK-MEL-28 melanoma it was 3.79 µM and > 100 µM. Further, the GI50 was 320 nM and > 100 µM in the test on OVCAR-5 ovarian; 1.43 µM and > 100 µM in the test on OVCAR-3 ovarian; 791 nM and > 100 µM with HS 578T breast; 2.09 nM and 407 nM in the test with MALME-3M melanoma; 12.1 nM and 40.4 µM in the test on SNB-75 CNS; 8.76 nM and 30.8 µM in the test with SK-MEL-28 melanoma.
On to `CCC1(O)CC(OC2CC(N(C)C)C(OC3CC(O)C(OC4OC(C)C(=O)C=C4N)C(C)O3)C(C)O2)c2c(cc3c(c2O)C(=O)c2c(O)cccc2C3=O)C1C(=O)OC` (configuration not stated), for which the TGI in the test on IGROV1 ovarian was 1.17 µM and 54.1 nM; with NCI-H460 lung, 19.9 nM and 1.5 µM.
With `Cc1c2oc3c(C)ccc(C(=O)NC4C(=O)NC(Cc5ccccc5)C(=O)N5CCCC5C(=O)N(C)CC(=O)N(C)C(C(C)C)C(=O)OC4C)c3nc-2c(C(=O)NC2C(=O)NC(Cc3ccccc3)C(=O)N3CCCC3C(=O)N(C)CC(=O)N(C)C(C(C)C)C(=O)OC2C)c(N)c1=O` (configuration not stated) (I: TFP[Sar][NMeV] / II: TFP[Sar][NMeV]; ester I:1-I:C, II:1-II:C; linker I:N-II:N via Actinocin(9to1); configuration not given here), the TGI with PC-3 prostate was 276 nM and > 100 µM; in the test on SK-MEL-2 melanoma, 4.33 nM and > 100 µM; in the test on EKVX NSCLC, 2.54 µM and 92 nM; in the test on SF-539 CNS, 18.3 nM and > 100 µM; in the test with DU-145 prostate, 55 nM and > 100 µM; with SW-620 colon, 41 nM and > 100 µM. For the same molecule, the TGI is 772 nM and 23.7 µM with SN12C renal; 29.8 nM and 554 nM with 786-0 renal; 1.98 µM and > 100 µM with NCI-H460 lung; 142 nM and > 100 µM in the test on HCC-2998 colon; 2.16 nM and > 100 µM with LOX IMVI melanoma; 1.92 µM and > 100 µM with HCT-15 colon.
